Assay results: the supplement of paper PMC4604168 (melanoma cell lines)
Some of the results follow. Many values rest on one well or one pass, so single values are uncertain.

Experiments:
Assay in all cases: cell count relative to DMSO control; melanoma cells; higher = more viable cells
Conditions in all cases: library dose: standard library concentration; 72 h
[1] = test system: G361
[2] = test system: IPC-298
[3] = test system: IST-MEL1
[4] = test system: LB2518-MEL
[5] = test system: LOXIMVI
[6] = test system: MEL-HO
[7] = test system: MZ2-MEL
[8] = test system: MeWo
[9] = test system: RPMI7951
[10] = test system: RVH-421
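Note: cells treated in 1,536-well plates, then fixed and DAPI-stained, with nuclei counted from automated high-throughput microscope images.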

| SMILES | cell count [1] [%] | cell count [2] [%] | cell count [3] [%] | cell count [4] [%] | cell count [5] [%] | cell count [6] [%] | cell count [7] [%] | cell count [8] [%] | cell count [9] [%] | cell count [10] [%] |
| --- | --- | --- | --- | --- | --- | --- | --- | --- | --- | --- |
| C=CCNC1=C2C[C@@H](C)C[C@H](OC)[C@H](O)[C@@H](C)/C=C(\C)[C@H](OC(N)=O)[C@@H](OC)/C=C\C=C(/C)C(=O)NC(=CC1=O)C2=O [Tanespimycin] + O=C1NC(=O)/C(=C/c2ccc(-c3ccc(F)cc3O)o2)S1 [AS252424] (first compound 0.01 µM, partner dose 5 µM) | 60.4 | 78.1 | 75.8 | 76.8 | 126 | 78.1 | 102 | 66.9 | 24.9 | 108 |
| C[C@@H](Oc1cc(-c2cnn(C3CCNCC3)c2)cnc1N)c1c(Cl)ccc(F)c1Cl [Crizotinib] + COc1ccc(Cl)c(Nc2nc3ccccc3nc2NS(=O)(=O)c2cccc(NC(=O)C(C)(C)N)c2)c1 [XL147] (first compound 1 µM, partner dose 4 µM) | 71.2 | 81.6 | 68.4 | 71 | 137 | 66.6 | 88.6 | 74.8 | 96.8 | 84.2 |
| CNC(=O)c1cc(Oc2ccc(NC(=O)Nc3ccc(Cl)c(C(F)(F)F)c3)cc2)ccn1 [sorafenib] + COc1ccc(COc2ccc(Cc3cnc(N)nc3N)cc2OC)cc1 [GW2580] (first compound 2 µM, partner dose 5 µM) | 66.8 | 89.3 | 94.1 | 103 | 98.5 | 30.7 | 86.7 | 66.9 | 88.1 | 108 |
| C=CCNC1=C2C[C@@H](C)C[C@H](OC)[C@H](O)[C@@H](C)/C=C(\C)[C@H](OC(N)=O)[C@@H](OC)/C=C\C=C(/C)C(=O)NC(=CC1=O)C2=O [Tanespimycin] + Cn1cc(/C=C2\C(=O)Nc3cccnc32)c2ccccc21 [GW441756] (first compound 0.01 µM, partner dose 2 µM) | 78.8 | 85.8 | 94 | 104 | 101 | 97.6 | 89.3 | 90.6 | 41.5 | 102 |
| CNC(=O)c1cc(Oc2ccc(NC(=O)Nc3ccc(Cl)c(C(F)(F)F)c3)cc2)ccn1 [sorafenib] + COc1ccc(Cl)c(Nc2nc3ccccc3nc2NS(=O)(=O)c2cccc(NC(=O)C(C)(C)N)c2)c1 [XL147] (first compound 2 µM, partner dose 4 µM) | 81.2 | 79.9 | 65.2 | 78.6 | 189 | 82.5 | 86.3 | 76.7 | 86 | 36.8 |
| CS(=O)(=O)CCNCc1ccc(-c2ccc3ncnc(Nc4ccc(OCc5cccc(F)c5)c(Cl)c4)c3c2)o1 [lapatinib] + OCc1c[nH]c2ccccc12 [Indole-3-carbinol] (first compound 4 µM, partner dose 4 µM) | 69.6 | 76.5 | 68.9 | 113 | 68.7 | 68.9 | 68 | 83.5 | 70.5 | 75.8 |
| CS(=O)(=O)CCNCc1ccc(-c2ccc3ncnc(Nc4ccc(OCc5cccc(F)c5)c(Cl)c4)c3c2)o1 [lapatinib] + CCCS(=O)(=O)Nc1ccc(F)c(C(=O)c2c[nH]c3ncc(Cl)cc23)c1F [PLX4720] (first compound 4 µM, partner dose 0.4 µM) | 52.1 | 58.8 | 79.5 | 81.5 | 95.8 | 65.9 | 48.3 | 84.6 | 82.9 | 63.6 |
| CS(=O)(=O)CCNCc1ccc(-c2ccc3ncnc(Nc4ccc(OCc5cccc(F)c5)c(Cl)c4)c3c2)o1 [lapatinib] + CCN(CC)CCCCNc1ncc2cc(-c3cc(OC)cc(OC)c3)c(NC(=O)NC(C)(C)C)nc2n1 [PD173074] (first compound 4 µM, partner dose 0.5 µM) | 59.6 | 91.8 | 80.2 | 82.2 | 79.1 | 76.8 | 69.6 | 74 | 42.7 | 90.1 |
| C=CCNC1=C2C[C@@H](C)C[C@H](OC)[C@H](O)[C@@H](C)/C=C(\C)[C@H](OC(N)=O)[C@@H](OC)/C=C\C=C(/C)C(=O)NC(=CC1=O)C2=O [Tanespimycin] + NCC(=O)Nc1ccc(-n2nc(C(F)(F)F)cc2-c2ccc3c(ccc4ccccc43)c2)cc1 [OSU03012] (first compound 0.01 µM, partner dose 5 µM) | 73.6 | 59.2 | 172 | 78.7 | 65.1 | 80.1 | 94.5 | 80.2 | 34.2 | 98.4 |
| CN1CCN(c2ccc3nc(-c4c(N)c5c(F)cccc5[nH]c4=O)[nH]c3c2)CC1 [Dovitinib] + COCC[n+]1c2c(n(Cc3cnccn3)c1C)C(=O)c1ccccc1C2=O [YM155] (first compound 0.5 µM, partner dose 0.002 µM) | 56.8 | 42.9 | 47 | 19.2 | 120 | 67.5 | 24.6 | 23.9 | 62 | 86.9 |
| CNC(=O)c1cc(Oc2ccc(NC(=O)Nc3ccc(Cl)c(C(F)(F)F)c3)cc2)ccn1 [sorafenib] + O=c1cc(-c2cccc3c2Sc2ccccc2S3)oc(N2CCOCC2)c1 [KU55933] (first compound 2 µM, partner dose 5 µM) | 70.6 | 91.3 | 90.2 | 102 | 110 | 87 | 106 | 77.2 | 83.1 | 122 |
| C[C@@H](Oc1cc(-c2cnn(C3CCNCC3)c2)cnc1N)c1c(Cl)ccc(F)c1Cl [Crizotinib] + O=C(O)c1ccc(-c2c[nH]c3ncc(-c4ccccc4)cc23)cc1C1CCCC1 [GSK650394] (first compound 1 µM, partner dose 0.8 µM) | 59.4 | 76.9 | 58.3 | 90.9 | 102 | 63.7 | 104 | 76.2 | 67.7 | 88.6 |
| CS(=O)(=O)CCNCc1ccc(-c2ccc3ncnc(Nc4ccc(OCc5cccc(F)c5)c(Cl)c4)c3c2)o1 [lapatinib] + c1cc(-c2cnn3cc(-c4ccc(OCCN5CCCCC5)cc4)cnc23)ccn1 [Dorsomorphin] (first compound 4 µM, partner dose 2 µM) | 3.79 | 62 | 84.2 | 47.3 | 83.6 | 57.3 | 28 | 53.2 | 14.8 | 91.2 |
| C[C@@H](Oc1cc(-c2cnn(C3CCNCC3)c2)cnc1N)c1c(Cl)ccc(F)c1Cl [Crizotinib] + CN(NC(=O)CC(=O)NN(C)C(=S)c1ccccc1)C(=S)c1ccccc1 [STA4783] (first compound 1 µM, partner dose 0.03 µM) | 53.4 | 73.7 | 80.6 | 33.1 | 49.2 | 94.2 | 98.9 | 21.4 | 78.5 | 83.2 |
| C=CCNC1=C2C[C@@H](C)C[C@H](OC)[C@H](O)[C@@H](C)/C=C(\C)[C@H](OC(N)=O)[C@@H](OC)/C=C\C=C(/C)C(=O)NC(=CC1=O)C2=O [Tanespimycin] + O=C(CCCCCCC(=O)Nc1ccccc1)NO [vorinostat] (first compound 0.01 µM, partner dose 0.4 µM) | 53.8 | 79.5 | 70.4 | 65.2 | 90.7 | 76.4 | 103 | 62.3 | 43.3 | 73.8 |
| C=CCNC1=C2C[C@@H](C)C[C@H](OC)[C@H](O)[C@@H](C)/C=C(\C)[C@H](OC(N)=O)[C@@H](OC)/C=C\C=C(/C)C(=O)NC(=CC1=O)C2=O [Tanespimycin] + COc1ccc(COc2ccc(Cc3cnc(N)nc3N)cc2OC)cc1 [GW2580] (first compound 0.01 µM, partner dose 5 µM) | 69.1 | 86.4 | 61.5 | 84.1 | 204 | 84 | 83.7 | 75.9 | 28.9 | 83.5 |
| C[C@@H](Oc1cc(-c2cnn(C3CCNCC3)c2)cnc1N)c1c(Cl)ccc(F)c1Cl [Crizotinib] + COc1ccc(COc2ccc(Cc3cnc(N)nc3N)cc2OC)cc1 [GW2580] (first compound 1 µM, partner dose 5 µM) | 87.8 | 81.2 | 98.3 | 78.1 | 95.6 | 81.7 | 82.8 | 74.1 | 71.2 | 119 |
| CN1CCN(c2ccc3nc(-c4c(N)c5c(F)cccc5[nH]c4=O)[nH]c3c2)CC1 [Dovitinib] + CCc1ccc(CCOc2ccc(CC3SC(=O)NC3=O)cc2)nc1 [pioglitazone] (first compound 0.5 µM, partner dose 10 µM) | 67.6 | 73.1 | 75.8 | 53.5 | 84.6 | 73.7 | 50 | 52.7 | 85.8 | 71 |
| C=CCNC1=C2C[C@@H](C)C[C@H](OC)[C@H](O)[C@@H](C)/C=C(\C)[C@H](OC(N)=O)[C@@H](OC)/C=C\C=C(/C)C(=O)NC(=CC1=O)C2=O [Tanespimycin] + CN(C)S(=O)(=O)c1ccc2c(c1)/C(=C/c1cc3c([nH]1)CCCC3)C(=O)N2 [SU6656] (first compound 0.01 µM, partner dose 2 µM) | 42.2 | 67.4 | 40.6 | 56.8 | 108 | 63.3 | 111 | 53.5 | 21.8 | 80.7 |
| C=CCNC1=C2C[C@@H](C)C[C@H](OC)[C@H](O)[C@@H](C)/C=C(\C)[C@H](OC(N)=O)[C@@H](OC)/C=C\C=C(/C)C(=O)NC(=CC1=O)C2=O [Tanespimycin] + CC(C)CCN1c2nc(Nc3cc(F)c(O)c(F)c3)ncc2N(C)C(=O)C1C [BID1870] (first compound 0.01 µM, partner dose 1 µM) | 38.6 | 58.5 | 49.5 | 62.9 | 93.4 | 62.8 | 97 | 45.1 | 20.3 | 85.4 |
